# Source: patent publication US4110472A, “Derivatives of 1-(disubstituted phenoxy)-3-amino-2-hydroxypropanes” (Bayer Aktiengesellschaft, priority 1975, dated 1978)
# Structures can show the parent of a compound that is named as a salt.
# Test system: cerebral blood flow
# Test: Increase in the cerebral blood flow in cats (133 xenon clearance)
# [1] = Table 1, intravenous, 2.5 mg/kg
# [2] = Table 2, oral administration, 50 mg/kg
SMILES,Increase in the cerebral blood flow by % [1] [%],Increase in the cerebral blood flow by % [2] [%],"Increase in the cerebral blood flow by % (Table 1, intravenous, 10 mg/kg) [%]",also measured
"C/C=C/c1ccc(OCC)c(OCC(O)CNC(c2ccccc2)c2ccccc2)c1 (stereo not drawn) [Compound A, 1-(2-ethoxy-5-trans-propenylphenoxy)-2-hydroxy-3-diphenylmethylaminopropane hydrochloride]",40,12,,
"C=CCc1ccc(OCC(O)CNC(c2ccccc2)c2ccccc2)c(OC)c1.Cl (centres unmarked) [Compound B, 1-(2-methoxy-4-allylphenoxy)-2-hydroxy-3-diphenylmethylaminopropane hydrochloride]",,10,48,
"C/C=C/c1ccc(OCC)c(OCC(O)CNC2c3ccccc3-c3ccccc32)c1 (stereo not drawn) [Compound C, 1-(2-ethoxy-5-trans-propenylphenoxy)-2-hydroxy-3-(9-fluorenylamino)-propane]",28,,,"Increase in the cerebral blood flow by % (Table 2, oral administration, 25 mg/kg): 30%"
"OC(CNC(c1ccccc1)c1ccccc1)COc1ccc(Cl)c(Cl)c1 (centres unmarked) [Compound D, 1-(3,4-dichlorophenoxy)-2-hydroxy-3-diphenylmethylaminopropane]",77,44,,
"CN(C)CCCOC1(Cc2ccccc2)CCCCCC1 [bencyclan, reference compound]",,,30,"Increase in the cerebral blood flow by % (Table 2, oral administration, up to 50 mg/kg): .phi."
"CC[C@]12CCCN3CCc4c(n(c5ccccc45)[C@@](O)(C(=O)OC)C1)[C@@H]32 [vincamine, reference compound]",,,,"Increase in the cerebral blood flow by % (Table 1, intravenous, 8 mg/kg): 27%"
